# From ChEMBL document CHEMBL1201862, “PubChem BioAssay data set” (2004)
#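 Exposure lasted 48 hours, with cells grown in 96-well plates and compounds tested at five concentrations. Here, GI50 denotes the concentration required for 50% inhibition of growth.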 Active and inactive are the calls of the source. Rule as the data show it: active = GI50 up to about 1.1 µM and inactive = higher.
# Test system: NCI-H322M
# Test: NCI anticancer screen, dose series, 48 h
row,SMILES,GI50
1,C=C1C[C@@H]2O[C@H]3[C@H]4[C@@H](C[C@@H](C)[C@@H](OC(C)=O)[C@H]42)[C@@H](C)CO[C@@]3(C)[C@H](OC(=O)CCCCCCC)CC1=O,inactive: 24.3 µM
2,CC(=O)N1c2ccccc2C(C)(C)OC1C(Cl)(Cl)Cl (stereo not given),inactive: 53.7 µM
3,CC1=CCC23C(C1)OC(Br)(C=CC2(C)O)C3(C)C (stereo not given),inactive: > 100 µM
4,O=C(O)CCSC(=O)Nc1ccc(/N=N/c2ccccc2)cc1,inactive: > 100 µM
5,COc1ccc(NC(=O)C(=O)C(CC2C(=O)NC(=S)NC2=O)C(=O)c2ccc3ccccc3c2)c([N+](=O)[O-])c1 (stereo not given),inactive: > 100 µM
6,COc1cc(C2=C(C#N)C(N)OC3=C2COc2ccccc23)cc(OC)c1OC (stereo not given),inactive: 12.6 µM
7,Cc1cnc(Cl)nc1C(C#N)c1nc2ccccc2s1 (stereo not given),inactive: 26.9 µM
8,CCN(CC)/[N+]([O-])=N/OS(=O)(=O)N(C)C,inactive: > 100 µM
9,CO[C@H](C)[C@](O)(C(=O)OCC1=CCN2CC[C@@H](O)[C@H]12)C(C)C,inactive: > 100 µM
10,O=C(NN1C(=O)C=CC1=O)c1ccccc1Nc1ccccc1C(=O)NN1C(=O)C=CC1=O,inactive: > 100 µM
11,COc1cc2c(c(OC)c1OC)-c1ccc(SC)cc1C(=O)CC2,active: < 0.01 µM
12,CCOc1ccc(/N=C/c2ccnc3ccccc23)cc1,inactive: 86.1 µM
13,COc1cc2ccc(CC(=O)O)cc2cc1OC,inactive: > 100 µM
14,COc1ccc(/C(Cl)=C(\C=N/O)c2ccc(OC)c(OC)c2)cc1OC,inactive: > 100 µM
15,C[C@H]1CC[C@H](NC(=O)N(CCCl)N=O)CC1,inactive: 81.1 µM
16,CN(C)c1ccc2nc3c(C(=O)O)cc(O)c(O)c3[o+]c2c1,inactive: 30 µM
17,CC(=O)N(C)OC(=O)CC(=O)c1ccccc1,inactive: > 100 µM
18,N#Cc1c(-c2ccccc2)c(CN2CCCCC2)c(=O)n2c1[nH]c1ccccc12,inactive: 13.9 µM
19,O=C(CNc1c(Cl)cccc1Cl)NC1C=Cc2ccc(S(=O)(=O)Nc3c(Cl)cccc3Cl)cc2C1=O (stereo not given),inactive: > 100 µM
20,Cc1ccc([N+](=O)[O-])cc1NC1=NCCO1,inactive: > 100 µM
21,N/C(=C\c1ccc(/C=C(\NC(=O)c2ccccc2)c2nc3c([nH]2)C(=O)c2ccccc2C3=O)cc1)c1nc2c([nH]1)C(=O)c1ccccc1C2=O,inactive: 16 µM
22,CCOP(=O)(OCC)/C(F)=C/c1ccccc1,inactive: > 100 µM
23,C1=C2C3=[N+](CCCCC3)CC2Cc2ccsc21 (stereo not given),inactive: 55.5 µM
24,[N-]=[N+]=NC(c1cn(C2CC(O)C(CO)O2)c(=O)[nH]c1=O)C(Br)Br (stereo not given),inactive: > 100 µM

row,SMILES,GI50
1,CC1(C)[C@@H]2C[C@H]1c1cnc(-c3ccccn3)cc1[C@H]2C(O)[C@@H]1c2cc(-c3ccccn3)ncc2[C@H]2C[C@@H]1C2(C)C (stereo not given in full),active: 0.0479 µM
2,CC/C(=N/O)c1ccc2[nH]c3c(C)cc([N+](=O)[O-])c(C)c3c2c1,inactive: > 100 µM
3,O=C(Nc1ccccc1)O/N=C(/CBr)c1ccccc1,inactive: 18.7 µM
4,O=C(N/N=C/c1ccco1)c1cc(I)cc(I)c1O,inactive: 13.7 µM
5,COc1cc2ccc(=O)oc2cc1O [SCOPOLETIN],inactive: 42.2 µM
6,CC1=C(/C=C/C(C)=C/C=C/C(C)=C/C=C/C=C(C)/C=C/C=C(C)/C=C/C2=C(C)C(=O)C(O)CC2(C)C)C(C)(C)CC(O)C1=O (stereo not given),inactive: > 100 µM
7,N#CC(C#N)=C1C(C#N)=C(N)NC12OCCO2,inactive: > 100 µM
8,CCOC(=O)C(=Cc1ccc(Oc2ccccc2)cc1)C(=O)OCC,inactive: 13 µM
9,CC1(C)O[C@H]2OC(CO)C(OS(C)(=O)=O)[C@H]2O1 (stereo not given in full),inactive: > 100 µM
10,COC(=O)C(=O)C(C#N)c1ccc(Cl)c(Cl)c1 (stereo not given),inactive: > 100 µM
11,COC(=O)CCSC(=O)Nc1ccccc1Cl,inactive: > 100 µM
12,COc1ccccc1/C=C\c1cnnc2ccccc12,inactive: > 10 µM
13,CC1=[N+](C)CCN1C,inactive: > 100 µM
14,C1=Cc2ccccc2C1.C=C(C)c1ccccc1.[N-]=[N+]=Nc1ccccc1,inactive: 84.5 µM
15,O=C(/C=C/c1ccc(O)cc1)c1ccc2c(c1)OCO2,inactive: 28.4 µM
16,Cc1nc(Nc2ccc(F)cc2)c2sc(=S)n(-c3ccc(F)cc3)c2n1,inactive: 12.7 µM
17,CN(CCc1ccc(Cl)c(Cl)c1)[C@H]1CCCC[C@H]1N1CCCC1,inactive: > 100 µM
18,COc1ccccc1-n1c(N)c2c(C)c(-c3ccccc3)[nH]c2nc1=S,inactive: > 100 µM
19,CCOC(=O)C/C(N)=C(\C#N)C(=O)OCC,inactive: > 100 µM
20,Cc1ccc(SC2=C(N(C)C)C(=O)c3ccccc3C2=O)cc1,inactive: 16 µM
21,Cc1cc2c(=O)n(-c3ccc(F)cc3)c(C)nc2c(C(=O)O)c1C,inactive: > 100 µM
22,C#CCSC(C=C=C)P(=O)(OC(C)C)OC(C)C (stereo not given),inactive: > 100 µM
23,CCOC(=O)c1cc2c([N+](=O)[O-])c(NC(C)=O)ccc2s1,inactive: > 100 µM
24,Cc1ccc(C(=O)N/N=C(\N=N\c2ccccc2[N+](=O)[O-])c2ccc(N(C)C)cc2)cc1,inactive: > 100 µM

row,SMILES,GI50
1,Cc1[nH]c2ccccc2c1C1Cc2ccccc2N1C(=O)C#Cc1ccc([N+](=O)[O-])cc1 (stereo not given),inactive: > 100 µM
2,O=C(CCc1nnc(S)[nH]1)Nc1cc(Cl)ccc1Cl,inactive: > 100 µM
3,CC1OC(OC2C(O)C(O)C(O)C(O)C2O)C(N)CC1NC(=N)C(=O)O (stereo not given),inactive: > 100 µM
4,N#CCCN(c1ccc(/C=N/c2ccccc2Cl)cc1)S(=O)(=O)c1ccccc1,inactive: > 100 µM
5,CC(=O)N1CCn2c1nc1cc(Cl)ccc12,inactive: 23.3 µM
6,O=C(O/C=C\OC1CCCC1(c1ccccc1)c1ccccc1)c1ccccc1 (stereo not given),inactive: 20.1 µM
7,COc1ccc(OC)c2c1C(=O)C1CC1(Br)C2=O (stereo not given),inactive: > 100 µM
8,CC1=CC(=O)/C(=C/NC(=O)NN)C(=O)O1,inactive: > 100 µM
9,C=C(C)CCC1CC=[N+]([O-])OC1C(C)(C)C (stereo not given),inactive: 97.9 µM
10,O=[N+]([O-])c1cc(Cl)ccc1OCc1ccccc1,inactive: > 100 µM
11,O=c1[nH]nc(Cc2ccccc2)n1C1CCCC1,inactive: > 100 µM
12,CN(C)CN(C)c1nc(N(C)C)nc(N(C)CN(C)C)n1,inactive: > 100 µM
13,CCOC(=O)C1=C(O)C(=O)c2cc(C)ccc2C1=O,inactive: 31.8 µM
14,CCCCc1ccc(Nc2nc(O)c3ncn(COCCO)c3n2)cc1,inactive: > 100 µM
15,O=C1NC2ON=C(c3ccccc3)C2C2ON=C(c3ccccc3)N12 (stereo not given),inactive: > 100 µM
16,CN(C)CCNCc1c2ccccc2c(CNCCN(C)C)c2ccccc12,inactive: 21.1 µM
17,COc1ccc(C2CC(c3ccc4ccccc4c3O)=NN2C(C)=O)cc1OC (stereo not given),inactive: > 100 µM
18,Oc1ccc(Cl)cc1Cc1cc(Cl)cc(Cc2cc(Cl)ccc2O)c1O,inactive: 2.81 µM
19,O=C1NCN(c2ccccc2)C12CCN(CCCN1CCN(CCOC(c3ccccc3)c3ccccc3)CC1)CC2,inactive: 4.02 µM
20,CN(Cc1cccc2ccccc12)Cc1cccc2ccccc12,inactive: > 100 µM
21,COc1ccc2c(c1)NC1(O)c3ccccc3C(=O)C21O (stereo not given),inactive: > 100 µM
22,Cc1ccc(NCCN(C)C)c2c(=O)c3cc(O)ccc3oc12,inactive: 14 µM
23,COc1ccc2nc3c4c(nccc4c2c1)-c1ncccc1C3=O,active: 0.0424 µM
24,NCCOc1ccc(/C(=C(/Cl)c2ccccc2)c2ccccc2)cc1,inactive: 14.3 µM

row,SMILES,GI50
1,Cc1ccc(C(=O)Oc2ccc(/C=C3\CCC/C(=C\c4ccc(OC(=O)c5ccc(C)cc5)cc4)C3=O)cc2)cc1,inactive: > 100 µM
2,Clc1ccc2[nH]c(CC3CCCC3)nc2c1,inactive: 20 µM
3,O=C1CCC[C@@H]2NC[C@@H](c3ccc4c(c3)OCO4)[C@H]12,inactive: > 25 µM
4,N#CCC(=O)N/N=C(\CCN1CCCC1)CC(c1ccccc1)c1c(O)c2ccccc2oc1=O (stereo not given),inactive: > 100 µM
5,C[C@]12CC[C@H](O)CC1CCC[C@@H]2O (stereo not given in full),inactive: > 100 µM
6,N#CC(NCCO)=C1C(=O)c2ccccc2C1=O,inactive: > 100 µM
7,OC1[C@@H]2[C@@H](O)CCCN2C[C@@H](O)[C@H]1O (stereo not given in full),inactive: > 100 µM
8,COc1ccc(CCN2CCN(CCc3ccc(OC)cc3)CC2)cc1,inactive: > 100 µM
9,O=C(Nc1ccc(S(=O)(=O)/N=c2\ncccn2C(=O)C(C(F)(F)F)C(F)(F)F)cc1)C(C(F)(F)F)C(F)(F)F,inactive: > 100 µM
10,O=C(O)c1c(Br)c(Br)c(Br)c(Br)c1C1c2ccc(O)cc2Oc2cc(O)ccc21,inactive: > 100 µM
11,CCOC(=O)/C(C#N)=C/c1ccnc2ccccc12,inactive: 70.6 µM
12,O=C1CN(c2ccccc2)C(=O)CN1NCNN1CC(=O)N(c2ccccc2)CC1=O,inactive: > 100 µM
13,O=C1OC(c2ccc(O)c(F)c2)(c2ccc(O)c(F)c2)c2cccc3cccc1c23,inactive: 16.5 µM
14,COc1ccc(C2(c3ccc(OC)cc3)OC(=O)c3cccc4cccc2c34)cc1,active: 0.107 µM
15,COC(=O)C(=O)C(C#N)c1cccc(Cl)c1 (stereo not given),inactive: > 100 µM
16,c1ccc([P+](c2ccccc2)(c2ccccc2)c2ccc([P+](c3ccccc3)(c3ccccc3)c3ccccc3)cc2)cc1,inactive: > 100 µM
17,CSc1nc(NC2OC(CO)C(O)C(O)C2O)c(N)c(=O)[nH]1 (stereo not given),inactive: > 100 µM
18,N#CC1=C(N)OC2=C(CCCc3ccccc32)C1c1ccc([N+](=O)[O-])cc1 (stereo not given),inactive: 21.3 µM
19,O=C(NCCCc1cn[nH]c(=O)n1)c1cccc2nc3ccccc3nc12,inactive: 78 µM
20,COc1cc2oc(-c3ccc4c(c3)OCO4)c(OC)c(=O)c2c(OC)c1OC,inactive: > 100 µM
21,C/C1=C\[C@@H](C)C[C@@H](C)OC(=O)[C@@H](C)NC(=O)[C@H](Cc2ccc(O)c(Br)c2)N(C)C(=O)CNC(=O)[C@H](C)C1,inactive: 1.14 µM
22,CC(C)(C)C(O)CC(O)(C(F)(F)F)C(F)(F)F (stereo not given),inactive: > 100 µM
23,O=C(O)CCSC(=O)Nc1ccc([N+](=O)[O-])cc1,inactive: > 100 µM
